About 31,000 (8.9%) of roughly 350,000 compounds were called active. Inconclusive results, whose numbers are uncertain, are shown with a selection of clear calls. Calls come from the whole dose curve; as a rule, active = well fitted inhibition curve with a large enough effect; inconclusive = small, poorly fitted or top-dose-only effect; inactive = no such curve, though single readings can be large or run the other way. Potencies beside an inconclusive call are fits to weak or partial responses and may not hold up.
Target: Histone-lysine N-methyltransferase EHMT2 (Homo sapiens) (UniProt Q96KQ7)
Test: qHTS Assay for Inhibitors of Histone Lysine Methyltransferase G9a; note: nearly all actives have a fitted effect of over 75% in size
Settings: G9a H3K9 monomethylation, AlphaScreen, 2 h; activity, negative = inhibition: at 59 µM (top of the series) unless noted
Outline: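 AlphaScreen read-out: biotin-H3K9 peptide (500 nM) methylation by 20 nM enzyme with 20 uM SAM, 2 h at room temperature after 15 min compound preincubation; anti-monomethyl H3K9 antibody plus donor/acceptor beads, 10 min dark.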
% is set by controls: 0 for no effect and ±100 for the full control effect; potency is the fitted concentration of half-maximal effect; tags give direction and shape of the fitted curve.

Chain of UniProt Q96KQ7 (Q96KQ7 whole entry, looked up): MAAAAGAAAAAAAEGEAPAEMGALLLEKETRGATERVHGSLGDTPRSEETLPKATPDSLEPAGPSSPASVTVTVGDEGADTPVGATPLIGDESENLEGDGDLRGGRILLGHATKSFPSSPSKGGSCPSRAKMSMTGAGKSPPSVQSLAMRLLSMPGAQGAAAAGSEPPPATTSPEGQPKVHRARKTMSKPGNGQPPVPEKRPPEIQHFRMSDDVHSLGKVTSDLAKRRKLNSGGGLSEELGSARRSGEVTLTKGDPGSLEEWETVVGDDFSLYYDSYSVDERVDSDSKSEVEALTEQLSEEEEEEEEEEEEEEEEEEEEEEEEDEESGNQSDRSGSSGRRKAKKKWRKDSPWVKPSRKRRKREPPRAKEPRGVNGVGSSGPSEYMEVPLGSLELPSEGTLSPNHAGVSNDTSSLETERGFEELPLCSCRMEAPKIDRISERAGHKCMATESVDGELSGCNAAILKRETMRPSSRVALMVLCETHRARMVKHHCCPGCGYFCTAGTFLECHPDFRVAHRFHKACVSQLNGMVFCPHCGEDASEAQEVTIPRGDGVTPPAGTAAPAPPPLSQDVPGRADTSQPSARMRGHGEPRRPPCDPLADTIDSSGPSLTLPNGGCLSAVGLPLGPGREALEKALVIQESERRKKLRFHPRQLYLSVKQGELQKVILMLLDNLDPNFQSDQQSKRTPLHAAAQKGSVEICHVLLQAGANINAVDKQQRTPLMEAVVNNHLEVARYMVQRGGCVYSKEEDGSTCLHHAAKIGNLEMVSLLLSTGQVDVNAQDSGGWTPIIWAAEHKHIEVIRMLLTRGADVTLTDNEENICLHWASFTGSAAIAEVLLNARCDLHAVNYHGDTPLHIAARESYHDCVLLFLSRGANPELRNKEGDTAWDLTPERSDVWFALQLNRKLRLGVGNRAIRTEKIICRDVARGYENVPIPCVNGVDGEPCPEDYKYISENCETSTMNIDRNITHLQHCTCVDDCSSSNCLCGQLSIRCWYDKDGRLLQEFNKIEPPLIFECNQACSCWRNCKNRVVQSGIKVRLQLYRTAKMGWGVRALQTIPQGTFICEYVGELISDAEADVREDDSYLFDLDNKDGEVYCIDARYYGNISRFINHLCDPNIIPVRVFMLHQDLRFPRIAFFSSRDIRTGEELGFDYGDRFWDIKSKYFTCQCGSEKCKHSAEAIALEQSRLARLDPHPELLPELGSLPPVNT

SMILES | Potency | activity, negative = inhibition
O=C(O)CCCn1cc(NC(=O)c2ccco2)cn1 | inconclusive: 89.1 µM [inhibitor, partial curve, poor fit] | –
COc1ccccc1Nc1c2c(nc3ccc(NC(=O)c4ccc(OC)c(OC)c4)cc13)CCCC2 | active: 14.1 µM | –
CCOc1ccccc1NC(=O)Cn1c(=O)n(Cc2ccccc2)c(=O)c2c1c1cc(C)ccc1n2C | – | inactive: -8.96%
O=c1c2ccccc2nc(-c2cccs2)n1-c1cccc2ccccc12 | inconclusive: 89.1 µM [inhibitor, single point] | –
C/C(=N\NC(=O)c1ccccc1Cl)c1ccccn1 | – | inactive: 17% [at 102 µM]
COc1ccc(CCNC(=O)c2ccc3c(c2)CCN3S(=O)(=O)c2ccccc2)cc1OC | inconclusive: 0.794 µM [inhibitor, full curve, poor fit] | –
O=C(Cn1cc(Br)ccc1=O)Nc1ccc2c(c1)OCO2 | – | inactive: -26.9% [at 12.7 µM]
COc1ccccc1CCNC(=O)c1c(C)nn(CC(C)C)c1Cl | – | inactive: 46.5% [at 102 µM]
O=[N+]([O-])c1ccc(NC(=S)N2CCN(c3ccccn3)CC2)cc1 | inconclusive: 100 µM [inhibitor, single point] | –
COc1ccc([N+](=O)[O-])cc1NC(=O)CCN1CCN(C)CC1 | – | inactive: 11.3%
Cc1ccc(NC(=O)CSCC(=O)NCc2cccc(C(F)(F)F)c2)cc1 | – | inactive: -28% [at 102 µM]
COC(=O)c1cc(CNC(=O)c2ccccc2Cl)ccc1OC | – | inactive: 2.58%
COc1ccc(C2CC(=O)C(C=NCCCN3CCOCC3)=C(O)C2)cc1 (configuration not stated) | inconclusive: 28.2 µM [inhibitor, single point] | –
COc1ccccc1N(C)S(=O)(=O)c1ccc(C(=O)OCC(=O)NCc2ccco2)cc1 | inconclusive: 79.4 µM [inhibitor, single point] | –
Cc1cc(C)cc(N(CC(=O)N2CCc3ccccc32)S(=O)(=O)c2c(C)noc2C)c1 | inconclusive: 89.1 µM [inhibitor, single point] | –
CC1Cc2nc(SCC(=O)OCc3ccccc3)n(C)c(=O)c2S1 (configuration not stated) | inconclusive: 89.1 µM [inhibitor, partial curve] | –
Cc1nc2ccc(N=NC3=C(O)CC(C)(C)CC3=O)cc2s1 | inconclusive: 4.47 µM [inhibitor, full curve, poor fit] | –
COc1ccc(C(=O)/C=C/Nc2ccc(S(=O)(=O)Nc3cc(OC)nc(OC)n3)cc2)c(OC)c1 | active: 25.1 µM | –
COc1cc(SC)ccc1C(=O)N(Cc1ccccc1)c1ccccc1 | – | inactive: 55.7% [at 102 µM]
COc1cccc(/C=N/NC(=S)Nc2cccnc2)c1 | inconclusive: 50.1 µM [inhibitor, partial curve, poor fit] | –
CCOc1ccc(CNCCCSc2nnnn2C)cc1OC | – | inactive: 1.37%
CCN1CC2CCCC3(C1)C(=O)NC1(CCCCC1)N=C23 (configuration not stated) | inconclusive: 2.51 µM [inhibitor, partial curve, poor fit] | –
Cc1cccc(Nc2nc(-c3sc(C)nc3C)cs2)c1 | inconclusive: 79.4 µM [inhibitor, partial curve, poor fit] | –
O=C(CN(Cc1ccccc1Cl)C(=O)c1csnn1)NC1CCCC1 | – | inactive: -10.5% [at 102 µM]

SMILES | Potency | activity, negative = inhibition
COC(=O)c1sc(N/N=C/c2ccc(C(C)C)cc2)nc1C | – | inactive: 91% [at 102 µM]
COC(=O)c1ccc(NC(=O)CN2CCOCC2)cc1 | – | inactive: 8.06%
O=C(NCCN1CCN(c2ccccc2)CC1)Nc1ccc(Cl)cc1 | – | inactive: -0.583% [at 102 µM]
COc1ccc(C(=O)OCC(=O)NCc2ccc3c(c2)OCO3)cc1[N+](=O)[O-] | – | inactive: 21.8%
O=C1CC(N2CCC(O)CC2)C(=O)N1c1ccc(Br)cc1 (configuration not stated) | inconclusive: 39.8 µM [inhibitor, single point] | –
COc1ccccc1N1CCN(C(c2ccc(Cl)cc2)c2nnc(-c3cccc(F)c3)o2)CC1 (configuration not stated) | inconclusive: 7.94 µM [inhibitor, partial curve, poor fit] | –
O=C([C@@H]1CCCN1C(=O)c1cccs1)N1CCN(S(=O)(=O)c2cccc(F)c2)CC1 | inconclusive: 39.8 µM [inhibitor, single point] | –
CCOC(=O)c1cnn(C(=O)c2ccccc2)c1N | inconclusive: 39.8 µM [inhibitor, single point] | –
CCC(C)c1ccc(NS(=O)(=O)c2c(C)[nH]c(=O)[nH]c2=O)cc1 (configuration not stated) | – | inactive: 19.2% [at 0.501 µM]
O=C1CSC(=S)N1/N=C/c1ccc(O)c(O)c1O | active: 1.26 µM | –
Cc1cccc(CCNC(=O)C2CCCN(S(=O)(=O)c3cccc4nsnc34)C2)c1 (configuration not stated) | inconclusive: 31.6 µM [inhibitor, partial curve] | –
O=[N+]([O-])c1ccc(Cl)c(/C=N/N2CCN(Cc3ccc(Cl)cc3)CC2)c1 | active: 10 µM | –
CCOC(=O)c1ccccc1NC(=O)c1nc2nccc(C)n2n1 | inconclusive: 31.6 µM [inhibitor, partial curve, poor fit] | –
Cc1ccc(Nc2nc(CSc3nnc(-c4ccncc4)n3-c3ccccc3C)cs2)cc1 | active: 44.7 µM | –
NC(=O)c1nsc(C(=O)N(Cc2ccco2)C(C(=O)NCc2ccc(F)cc2)c2ccc(O)cc2)c1N (configuration not stated) | – | inactive: 9.39%
COc1ccc(CC(=O)Nc2sc3c(c2C(=O)Nc2cccc(C)c2)CCCCC3)cc1 | – | inactive: -46.6%
COc1ccc(CCNC(=O)CN(C2CCCCC2)S(C)(=O)=O)cc1OC | active: 31.6 µM | –
O=C(Nc1nc(-c2cccnc2)cs1)c1cccc([N+](=O)[O-])c1 | – | inactive: 6.92% [at 102 µM]
CCOC(=O)N1CCN(C(=O)Cc2ccccc2OC)CC1 | inconclusive: 79.4 µM [inhibitor, partial curve, poor fit] | –
Cc1cc(C)nc(N/N=C/c2cccc([N+](=O)[O-])c2)n1 | inconclusive: 28.2 µM [inhibitor, partial curve] | –
C=CCc1c(C)nc(-c2ccccc2)nc1Nc1ccccc1O | inconclusive: 25.1 µM [inhibitor, single point] | –
COC(=O)c1c(/N=C/N(C)C)sc2c1CCN(c1ncc(C(F)(F)F)cc1Cl)C2 | inconclusive: 50.1 µM [inhibitor, partial curve, poor fit] | –
CCCC(C)c1nnc(NC(=O)C2CCCO2)s1 (configuration not stated) | inconclusive: 3.55 µM [inhibitor, partial curve, poor fit] | –
Cc1ccc2c(=O)cc(C(=O)Nc3ccc(S(=O)(=O)N4CCCCC4)cc3)oc2c1 | – | inactive: -16.8%

SMILES | Potency | activity, negative = inhibition
Nc1c(C(=O)c2ccco2)oc2ccccc12 | inconclusive: 44.7 µM [inhibitor, partial curve, poor fit] | –
O=C(OCC(=O)c1cccs1)c1ccc(NC(=O)c2ccco2)cc1 | – | inconclusive: -67.2% [inhibitor]
CCN(CC)CCN1C(=O)C(=O)/C(=C(/O)c2c(C)[nH]c(C(=O)OC)c2C)C1c1cccnc1 (configuration not stated) | inconclusive: 12.6 µM [inhibitor, partial curve, poor fit] | –
CCN(CCn1cccn1)C(=O)CCc1nnc(C2(c3ccc(Cl)cc3)CCC2)o1 | – | inactive: 1.66% [at 102 µM]
Cc1nnc(SCc2cc(=O)oc3ccc4ccccc4c23)n1Cc1ccccc1 | active: 35.5 µM | –
Cc1cc(C)nc(Sc2ccc(C=O)cc2[N+](=O)[O-])n1 | inconclusive: 50.1 µM [inhibitor, partial curve, poor fit] | –
CCn1cc(C(=O)NCc2cccnc2)c2cc(OC)c(OC)cc2c1=O | active: 11.2 µM | –
COc1ccc(/C=N\NC(=O)c2ccc(=O)[nH]n2)cc1O | inconclusive: 25.1 µM [inhibitor, single point] | –
COC(=O)c1ccc(C)c(NC(=O)c2ccc(Cl)c([N+](=O)[O-])c2)c1 | – | inactive: -3.7%
c1ccc(Sc2cccc3ccccc23)c(CNC2=NCCN2)c1 | active: 15.8 µM | –
O=C(c1ccc(Cl)cc1Cl)N1CCN(c2ccc(N3CCOCC3)nn2)CC1 | inconclusive: 0.891 µM [inhibitor, partial curve, poor fit] | –
Cc1[nH][nH]c(=O)c1N=Nc1ccccc1 | active: 50.1 µM | –
COc1ccc(NC(=O)Cn2c(SCc3ccc(F)cc3)nc3cccnc32)c(OC)c1 | inconclusive: 39.8 µM [inhibitor, partial curve, poor fit] | –
C#CCOCCOCCOCCNc1nc(N2CCN(C(=O)[C@H](CCCCN)n3cc([C@@H](N)C(C)CC)nn3)CC2)nc(N2CCN(C(=O)[C@H](Cc3ccc(O)cc3)n3cc([C@@H](N)CC(C)C)nn3)CC2)n1 (some centres not stated) | – | inconclusive: -97.5% [inhibitor]
CC1=NN(c2ccc(C)cc2)C(=O)/C1=C\c1ccc(Br)s1 | inconclusive: 8.91 µM [inhibitor, single point] | –
CCOc1cc(/C=C2/NC(=O)N(CC(=O)Nc3cccc(C)c3)C2=O)ccc1OC | – | inactive: 20.8% [at 102 µM]
Cc1ccc(NC(=O)CSc2cn(CC(=O)N3CCOCC3)c3ccccc23)cc1Cl | – | inactive: -28.6%
NC1=NN=C(c2ccc3c(c2)OCCO3)CS1 | inconclusive: 8.91 µM [inhibitor, full curve, poor fit] | –
O=S(=O)(c1ccccc1)c1nnn2c1nc(N1CCN(c3ccccc3)CC1)c1cc(Cl)ccc12 | – | inactive: -40.6%
Oc1ccc(N=C/C=C/c2cccc(Br)c2)cc1-c1nc2ccccc2s1 | active: 7.94 µM | –
CC(C)Nc1nc(NC(C)C)nc(C(=O)OCCO)n1 | inconclusive: 79.4 µM [inhibitor, single point] | –
CCCc1oc(C(=O)O)cc1CN1CCCC1 | inconclusive: 89.1 µM [inhibitor, single point] | –
Cc1ccc(NC(=O)CN2C(=O)CSc3ccc(S(=O)(=O)N(C)C)cc32)c(C)c1 | – | inactive: 3.68%
Cc1ccc(SCC(=O)Nc2c(Br)cnn2C)cc1 | inconclusive: 89.1 µM [inhibitor, single point] | –

From PubChem BioAssay AID504332 (National Center for Advancing Translational Sciences (NCATS), 2011)
